According to PubChem BioAssay AID881 (National Center for Advancing Translational Sciences (NCATS), 2007):
The campaign covered roughly 110,000 compounds. About 610 (0.55%) were called active. Inconclusive means that the source gave no clear call. Such entries were picked first, then a sample of the others. Calls follow the shape of the dose curve; as a rule, active = well fitted inhibition curve with a large enough effect; inconclusive = small, poorly fitted or top-dose-only effect; inactive = no such curve, though single readings can be large or run the other way. A potency beside an inconclusive call is a rough fit, not a confirmed value.

These molecules were tested against Polyunsaturated fatty acid lipoxygenase ALOX15B (Homo sapiens) (UniProt O15296) (assay: qHTS Assay for Inhibitors of 15-hLO-2 (15-human lipoxygenase 2)). Conditions: purified 15hLO-2, xylenol orange hydroperoxide absorbance; activity change, negative = inhibition: at 57.1 µM (top of the series) unless noted.
Sequence of UniProt O15296 (O15296 whole entry, looked up): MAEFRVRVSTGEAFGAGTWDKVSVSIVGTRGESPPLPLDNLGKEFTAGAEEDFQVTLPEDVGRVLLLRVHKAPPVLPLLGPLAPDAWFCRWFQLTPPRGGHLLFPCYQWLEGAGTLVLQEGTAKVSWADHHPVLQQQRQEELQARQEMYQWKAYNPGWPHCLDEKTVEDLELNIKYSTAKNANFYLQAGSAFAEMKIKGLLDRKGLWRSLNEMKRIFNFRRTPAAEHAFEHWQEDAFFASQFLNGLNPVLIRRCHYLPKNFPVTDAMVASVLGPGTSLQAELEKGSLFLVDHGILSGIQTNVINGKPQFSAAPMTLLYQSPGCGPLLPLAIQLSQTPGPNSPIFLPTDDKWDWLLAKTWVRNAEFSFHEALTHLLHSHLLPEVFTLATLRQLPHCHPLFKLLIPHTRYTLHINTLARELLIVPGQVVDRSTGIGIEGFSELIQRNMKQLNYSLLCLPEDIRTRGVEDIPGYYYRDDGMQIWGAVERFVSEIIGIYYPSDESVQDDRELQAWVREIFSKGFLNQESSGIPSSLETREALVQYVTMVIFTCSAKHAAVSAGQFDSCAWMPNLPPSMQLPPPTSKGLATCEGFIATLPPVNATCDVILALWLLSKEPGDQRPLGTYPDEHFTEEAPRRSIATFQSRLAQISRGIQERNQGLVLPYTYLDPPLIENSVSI
How it was run: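 Screening format was qHTS against 50 nM purified 15hLO-2 in Hepes pH 7.5 with detergent. Activity follows hydroperoxide formation from 45 uM arachidonic acid, measured as 573:405 nm absorbance ratio of the ferric-xylenol orange complex.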
% is scaled to controls: 0 for no effect and ±100 for the full control effect; potency is read from the fitted curve at half-maximal effect; tags tell the direction and shape of the fitted curve.
Also: nearly all actives have a fitted effect of over 60% in size.

SMILES | Potency | activity change, negative = inhibition
COc1cccc(O)c1O | inconclusive: 1.26 µM [inhibitor, full curve] | –
S=C(c1ccc(-c2cc(Cl)ccc2Cl)o1)N1CCOCC1 | inconclusive: 25.1 µM [inhibitor, partial curve] | –
Cc1ccc(C2=NN3C(C2)c2ccccc2OC32C(=O)Nc3ccccc32)cc1 (stereo unspecified) | inconclusive: 25.1 µM [inhibitor, partial curve] | –
COc1cc(/C=C2\SC(c3ccc(C)cc3)=NC2=O)cc(OC)c1OC | inconclusive: 25.1 µM [inhibitor, single point] | –
COC(=O)C1=C(C)N(Cc2ccc(C)cc2)C(=O)/C1=C\c1ccc(O)c(OC)c1 | inconclusive: 12.6 µM [inhibitor, partial curve] | –
Cc1nc2c(c(=O)n1Cc1ccccc1Cl)c1nc3ccccc3nc1n2Cc1ccco1 | inconclusive: 15.8 µM [inhibitor, partial curve] | –
N#CC1=C2SCN(Cc3ccccc3)CN2C(=O)CC1c1cccs1 (stereo unspecified) | inconclusive: 31.6 µM [inhibitor, single point] | –
CCOC(=O)C1CCCN(c2ncnc3c2cnn3-c2cccc(C)c2)C1 (stereo unspecified) | – | inactive: 2.05%
Cc1ccc(Cl)cc1NC(=O)CSC(N)=O | inconclusive: 12.6 µM [inhibitor, partial curve] | –
CCCc1cc(C(=O)N/N=C/c2ccc(C)o2)c2ccccc2n1 | inconclusive: 25.1 µM [inhibitor, single point] | –
O=C(CCc1ccc(Oc2cc([N+](=O)[O-])cc([N+](=O)[O-])c2)cc1)N1CCCCC1 | – | inactive: -12.1%
CC(C)(CN)SCc1ccccc1 | – | inactive: 2.1% [at 11.4 µM]
Cc1ccc2c(c1Br)/C(=N/N1C(=O)c3ccccc3C1=O)C(=O)N2 | inconclusive: 10 µM [inhibitor, partial curve, poor fit] | –
Cn1c(-c2ccc(Br)o2)nc2cc(Br)ccc21 | – | inactive: -23.3%
O=C(Nc1ccccc1)N1CCC(C(=O)N(Cc2ccco2)Cc2cccs2)CC1 | inconclusive: 20 µM [inhibitor, partial curve] | –
CCCCN1C(=O)CC(C(=O)O)C1c1ccc(OC)cc1 (stereo unspecified) | – | inactive: 1.57%
C(=N\n1cnnc1)/c1ccc(N2CCOCC2)s1 | inconclusive: 20 µM [inhibitor, partial curve] | –
CCN(CC)C(=S)Sc1c(-c2ccccc2)c2cc(Cl)ccc2[nH]c1=O | inconclusive: 15.8 µM [inhibitor, partial curve] | –
Cn1c(=O)c2cn3c(c2n(C)c1=O)C(c1ccccc1)CC(c1ccccc1)=N3 (stereo unspecified) | inconclusive: 25.1 µM [inhibitor, single point] | –
COc1ccc(CC2CCOC2=O)cc1 (stereo unspecified) | – | inactive: 4.54%
CCOc1cc(/C=N/n2cnnc2)ccc1OC(=O)c1cccc([N+](=O)[O-])c1 | inconclusive: 0.316 µM [inhibitor, full curve, poor fit] | –
O=C(Nc1cc(Cl)ccc1Cl)C1CC(=O)N(c2ccc(Br)cc2)C1 (stereo unspecified) | inconclusive: 25.1 µM [inhibitor, single point] | –
Cc1noc(C)c1COc1ccc(C(=O)NCC2CCCO2)cc1 (stereo unspecified) | inconclusive: 0.158 µM [inhibitor, full curve] | –

SMILES | Potency | activity change, negative = inhibition
CCc1ccc(CNc2ccc(N3CCN(C(C)=O)CC3)cc2)cc1 | active: 12.6 µM | –
C=CCn1c(SCC(=O)Nc2sccc2C(N)=O)nc2sc(C)c(C)c2c1=O | – | inactive: -7.14%
CCC/C=C(\CCC)C(NS(=O)(=O)c1ccc(Cl)cc1)c1ccc(C(=O)OC)cc1 (stereo unspecified) | – | inactive: -3.2%
C(=N\Nc1nc(-c2ccccc2)cs1)/c1cccs1 | inconclusive: 12.6 µM [inhibitor, partial curve] | –
COc1ccccc1CNc1ncncc1-c1cccc(C#N)c1 | – | inactive: 2.26%
COc1cc(/C=C/C(=O)c2c(O)cc(C)oc2=O)cc(OC)c1O | inconclusive: 25.1 µM [inhibitor, single point] | –
Cc1ccc(S(=O)(=O)Nc2nc3ccccc3nc2NCc2ccco2)cc1 | – | inactive: -4.21%
Cc1ccc(C2NC(=O)NC3=C2CCc2ccccc23)cc1 (stereo unspecified) | inconclusive: 10 µM [inhibitor, partial curve] | –
O=C(CSc1ncn(-c2ccccc2)n1)N1CCN(c2ccccc2)CC1 | inconclusive: 25.1 µM [inhibitor, single point] | –
O=C(O)CSc1sc(=S)sc1SCC(=O)O | inconclusive: 20 µM [inhibitor, partial curve] | –
CCCCn1c(=O)[nH]c(=O)c2c1nc(-c1ccc(-c3ccccc3Br)o1)n2CC | inconclusive: 7.94 µM [inhibitor, partial curve] | –
O=C(CN1CCN(C(=O)c2ccco2)CC1)Nc1cc(Cl)ccc1Cl | inconclusive: 0.251 µM [inhibitor, partial curve] | –
Cc1ccc(C(=O)Nc2nnc(C3CCCCC3)s2)o1 | inconclusive: 20 µM [inhibitor, partial curve] | –
O=C1CC(Nc2ccc(N3CCOCC3)cc2)C(=O)N1CCc1ccccc1 (stereo unspecified) | inconclusive: 25.1 µM [inhibitor, partial curve] | –
Cc1cc(NC2CCCCC2)nc(N2CCOCC2)n1 | – | inactive: 0.0089%
O=C1CC(Nc2ccccc2)C(=O)N1c1ccc(N2CCOCC2)cc1 (stereo unspecified) | – | inactive: -8.69%
NC(=O)SCC(=O)Nc1cccc(Cl)c1 | inconclusive: 39.8 µM [inhibitor, single point] | –
Nc1c(NC2CCCCC2)c2ccccc2oc1=O | inconclusive: 25.1 µM [inhibitor, partial curve] | –
O=c1c(O)cc(C2Oc3cc(O)cc(O)c3CC2O)cc2c(C3Oc4cc(O)cc(O)c4CC3O)cc(O)c(O)c12 (stereo unspecified) | – | inactive: -17.9%
O=C(Nc1ccc2oc(-c3ccc4ccccc4c3)nc2c1)c1ccc2c(c1)OCCO2 | inconclusive: 7.94 µM [inhibitor, partial curve] | –
CC(C)(C)C(=O)NC(=S)Nc1ccccc1F | inconclusive: 25.1 µM [inhibitor, partial curve] | –
Cc1oc2c(O)c(O)ccc2c(=O)c1-c1cnn(-c2ccccc2)c1 | inconclusive: 3.16 µM [inhibitor, full curve] | –
COc1ccccc1NC(=S)NC(=O)CCCOc1ccc(Cl)cc1Cl | active: 20 µM | –
